Read counts are not given, so values of variants with three or more changes are uncertain.
B1: CPEB3 Ribozyme (parent)
chain: UAACAGGGGGCCACAGCAGAAGCGUUCACGUCGCAGCCCCUGUCAGAUUCUGGUGAAUCUGCGAAUUCUGCUGUAUAUCUC

Variants of: B1
Test: self-cleavage, relative activity (ratio to wild type); higher = more cleavage; in vitro, sequencing
How it was run: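 After error-prone PCR and barcoding, CPEB3 ribozyme mutant libraries were transcribed with T7 RNA polymerase at 37°C for 5 hours, then given 15 min with DNase I before an EDTA stop, and they cleaved during both steps. Reverse transcription with template switching preceded Illumina sequencing. Relative activity divides a variant's cleaved/total read fraction by the unmutated ribozyme's. At least 5 reads were required per variant, and three batches were averaged.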

| Variant | self-cleavage |
| --- | --- |
| G16C A28G U41C | 0.07 |
| G16C A35G A45U A56G A65U U76C | 0.12 |
| G16C A45G A56G A75U U78A | 0.2 |
| G16C A56G C62A | 0.17 |
| G16C A64G U67A | 0.43 |
| G16C C29A U72C | 0.34 |
| G16C G19U U41A U54C A77G | 0.15 |
| G16C U25A U41A U49C | 0.15 |
| G16C U25C U43C U49C | 0.08 |
| G16C U25C U60A | 0.05 |
| G16C U31A A45C G55U A75U | 0.12 |
| G16C U31C A75G | 0.19 |
| G16U A18G A45G A77G | 0.23 |
| G16U A18G A47U U54A G63U | 0.1 |
| G16U A21G C37U C38A U49C | 0.1 |
| G16U A28G A35G U41C | 0.33 |
| G16U A28G A57G | 0.22 |
| G16U A45G U54A U69C U74A | 0.07 |
| G16U A45G U80C | 0.13 |
| G16U C29U U41C | 0.09 |
| G16U G33C A45G | 0.04 |

| Variant | self-cleavage |
| --- | --- |
| G16U G36C U43G A47G U51C | 0.16 |
| G16U G46A U54C U60C | 0.04 |
| G16U G52A A75G | 0.8 |
| G16U U25A A35G U67A C79G | 0.21 |
| G16U U51G A75G | 0.37 |
| G16U U54G G63C | 0.21 |
| G16U U58C A65G U78A | 0.06 |
| C17A A18G C27A U72A | 0.22 |
| C17A A20C U43C | 0.05 |
| C17A A20G U31A A56U A77G | 0.05 |
| C17A A35U A75C U78C | 0.25 |
| C17A A45U G53U A57G U60G U67A | 0.03 |
| C17A C32U U43C A57U U72C | 0.06 |
| C17A G33A U72C | 0.17 |
| C17A G42A U48C U67G | 0.15 |
| C17A U25C A28U A35G | 0.15 |
| C17A U26A U48A U60A U66C | 0.15 |
| C17A U43C U78C C81U | 0.21 |
| C17G A18G A20G U26C A28G A35G G53A | 0.05 |
| C17G A18U A56G | 0.2 |
| C17G A18U U26A U51C A64G | 0.16 |

| Variant | self-cleavage |
| --- | --- |
| C17G A20G U26C G53A | 0.26 |
| C17G A21G U25C U31A U54C U58C | 0.05 |
| C17G A21G U49A | 0.08 |
| C17G A45U U49C U78C | 0.05 |
| C17G C23U U25C G36C U41A U69C | 0.06 |
| C17G C23U U58C U60A | 0.08 |
| C17G C32G U43C U48C | 0.19 |
| C17G C34A U48C A57G | 0.2 |
| C17G G19U U60A U72C | 0.1 |
| C17G G33A A57G U60C A64G U72C U80A | 0.05 |
| C17G U25C U31A U74A | 0.03 |
| C17G U25C U54A | 0.29 |
| C17G U26A C39U U51A U54C U69C U72C | 0.09 |
| C17G U26C A47G C68U | 0.07 |
| C17G U26C C50U G73A | 0.33 |
| C17G U26G G33A | 0.06 |
| C17G U51C U67C | 0.08 |
| C17U A18U A45G A65G U80A | 0.15 |
| C17U A20G A56G A65G U69C | 0.18 |
| C17U A20G A77G | 0.5 |
| C17U A20U U51C U54C | 0.09 |

| Variant | self-cleavage |
| --- | --- |
| C17U A21G U26A A57G U69C | 0.06 |
| C17U A21G U43G U54C U60G U72G | 0.04 |
| C17U A28C A57G U72C U76A | 0.11 |
| C17U A28U C50U U51G U80C | 0.27 |
| C17U A47G U54A U60C | 0.17 |
| C17U C23A A45U | 0.48 |
| C17U C32A A64G | 0.07 |
| C17U C44U G61U | 0.06 |
| C17U G19A U25A U54G | 0.2 |
| C17U G33U C39U U58C U72C | 0.06 |
| C17U U25A U31A A35U A45G | 0.07 |
| C17U U25A U31C A35G A56G U78C | 0.06 |
| C17U U25C A28U U78C | 0.18 |
| C17U U25C C29U C38U | 0.51 |
| C17U U26A A28G C37U | 0.07 |
| C17U U26C C34U | 0.39 |
| C17U U26C C34U U60C A77U U78G | 0.1 |
| C17U U31A U51C A57G | 0.14 |
| C17U U31C A35G C37U U72A | 0.23 |
| C17U U31C A45G A47G | 0.13 |

— the RNAGym collection of RNA variant scans (doi:10.1093/nar/gkz1192)
